Results taken from the supplement of paper PMC10126150.
Values marked as one replicate rest on one cluster of the flow cell; about a third of the high ones do not repeat.

System: ATP
Experiment: switch fluorescence ratio, 500 uM ATP over buffer (Cy3 cluster intensity, sum of 5 cycles each) (fold (ratio)); higher = stronger signal-on switching upon ATP binding; sequences stand for … in TCGTCGGCAGCGTCAGATGTGTATAAGAGACAGTTTTTTTTTTTTTTTTTTTTTTTTT…TC
Conditions: aptamer strand: ATP DNA aptamer (quencher-CACCTGGGGGAGTATTGCGGAGGAAGG + anchor), 100 nM annealed; ATP concentration: 500 uM; one replicate
Method in brief: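 Cy3-labelled switching-strand clusters on a modified Illumina MiSeq flow-cell were annealed to 100 nM quencher-labelled ATP aptamer, imaged in selection buffer, then imaged after 15 min with 500 uM ATP at 22 °C. Five buffer/ATP cycles ran, with NaOH stripping and re-annealing between them. The fluorescence ratio is summed target-cycle over summed buffer-cycle Cy3 intensity per cluster, averaged per switch-domain sequence. Clusters outside 100-1000 RFU were excluded.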
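Note: ATP exposure 15 min at 22 °C before imaging.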

For AAGAGCGGAG, the switch fluorescence ratio was 0.961.

Sequence TATTTCTCCG has a switch fluorescence ratio of 1.88.

GCAATTGTGA showed a switch fluorescence ratio of 0.987.

Sequence ATAGGATAAG has a switch fluorescence ratio of 0.989.

TAGGTCCTAG was tested, and the switch fluorescence ratio was 0.984.

TTTTCTGAA was tested, and the switch fluorescence ratio was 1.01.

Work on CGAAACGCAC yielded a switch fluorescence ratio of 1.73.

CTTAGGTGGG showed a switch fluorescence ratio of 0.985.

CTTGGAACGC was tested, and the switch fluorescence ratio was 1.05.

GAACAGTGTT gave a switch fluorescence ratio of 1.01.

For TATCGTCTGT, the switch fluorescence ratio was 0.985.

CCTCCTCTTC gave a switch fluorescence ratio of 1.88.

In the case of TACTCCTCAA, the switch fluorescence ratio is reported as 5.72.

GATGTATATC gave a switch fluorescence ratio of 0.987.

In the case of AGAACTGCAG, the switch fluorescence ratio is reported as 0.984.

Work on GCGGGAGAGA yielded a switch fluorescence ratio of 1.02.

TAGAGGACAT was tested, and the switch fluorescence ratio was 1.01.

CTCAGGCCTC showed a switch fluorescence ratio of 1.02.

TGGCCAAAC showed a switch fluorescence ratio of 0.999.

TTAGGCCGCC was tested, and the switch fluorescence ratio was 0.957.

In the case of ATATGTAAAA, the switch fluorescence ratio is reported as 1.

Work on CATCTTGGG yielded a switch fluorescence ratio of 1.02.

Sequence ATTAGCGTGC has a switch fluorescence ratio of 0.96.

Work on GGCACTTCTT yielded a switch fluorescence ratio of 0.962.

For TTTGGCTGCA, the switch fluorescence ratio was 1.19.

With TAATCTTAAG the switch fluorescence ratio was 1.

CGTTGCTGT showed a switch fluorescence ratio of 1.03.

In the case of TGCTCGAACT, the switch fluorescence ratio is reported as 0.998.

Work on TTTAGGCAGA yielded a switch fluorescence ratio of 1.01.

Work on ATTTCCTCAA yielded a switch fluorescence ratio of 1.14.

GGGGAGAGCA was tested, and the switch fluorescence ratio was 0.989.

For CTGATTGGTT, the switch fluorescence ratio was 0.972.

Work on GGGCTCAATG yielded a switch fluorescence ratio of 0.978.

CACACTCAGA was tested, and the switch fluorescence ratio was 1.04.

For CGGCTATTTT, the switch fluorescence ratio was 0.971.

In the case of ACACAACAGG, the switch fluorescence ratio is reported as 1.35.

Sequence AGTCCCGGGG has a switch fluorescence ratio of 1.06.

AGATAAATTA showed a switch fluorescence ratio of 0.978.

In the case of GGGTACGATG, the switch fluorescence ratio is reported as 1.03.

Work on ATTCGCTAAC yielded a switch fluorescence ratio of 4.36.

CTTACCGGTC gave a switch fluorescence ratio of 0.994.

For CTTCTTATGA, the switch fluorescence ratio was 0.945.

AAGATCTAGT gave a switch fluorescence ratio of 0.978.

For CTTGGATCGT, the switch fluorescence ratio was 0.995.

Work on GTAATTATTG yielded a switch fluorescence ratio of 0.991.

TGCAAGGCAA was tested, and the switch fluorescence ratio was 1.04.

CGGGTTCGAC showed a switch fluorescence ratio of 0.943.

Work on TTCTGCGTTT yielded a switch fluorescence ratio of 0.989.

With TTTTACCCCC the switch fluorescence ratio was 1.81.

For CTGCGCGCAG, the switch fluorescence ratio was 0.99.

With ATCGGTGAC the switch fluorescence ratio was 1.04.

For AAGTCTAGCT, the switch fluorescence ratio was 1.01.

With GTATAAACGC the switch fluorescence ratio was 1.01.

Work on GCGCTATCCG yielded a switch fluorescence ratio of 0.961.

For TTCTATGAAG, the switch fluorescence ratio was 0.941.

CGCTTCTG was tested, and the switch fluorescence ratio was 0.935.

Work on GTTTGCCTTG yielded a switch fluorescence ratio of 1.01.

Sequence ATATTCGTTT has a switch fluorescence ratio of 0.995.

Sequence AGTCATTCGC has a switch fluorescence ratio of 0.993.

For AAAAACCGCG, the switch fluorescence ratio was 1.22.

Work on CGTGATCATA yielded a switch fluorescence ratio of 1.01.

With TGAGAGTCCG the switch fluorescence ratio was 1.01.

With CCGACATGAA the switch fluorescence ratio was 4.83.

With ACTGATGTGT the switch fluorescence ratio was 0.961.

TGTGTTAGCT gave a switch fluorescence ratio of 0.959.

AAGATGTTC was tested, and the switch fluorescence ratio was 1.01.

Sequence TGACATAGTT has a switch fluorescence ratio of 1.02.

TCGGGACTGC gave a switch fluorescence ratio of 1.05.

Work on ACAGGGGTCG yielded a switch fluorescence ratio of 0.96.

TGATGTCTTT showed a switch fluorescence ratio of 1.02.

Work on ATATCTGTGT yielded a switch fluorescence ratio of 0.946.

With CGGACTTTAC the switch fluorescence ratio was 1.52.

With GCTCCTGTCA the switch fluorescence ratio was 1.07.

GAAGGTAGCC gave a switch fluorescence ratio of 1.01.

TAGATAATC gave a switch fluorescence ratio of 0.944.

Sequence ATGCCCCGCA has a switch fluorescence ratio of 1.02.
